From the supplement of paper PMC4466236
The full ranking holds about 33,000 sequences; the median of “E-score (dimensionless, -0.5 to 0.5)” is about -0.058, and the highest 2% start at about 0.35. The list shows a part of the results.

Test system: MvaT
Assay: PBM 8-mer E-score (mean of HK and ME arrays) (E-score (dimensionless, -0.5 to 0.5)); higher = stronger relative binding preference; most listed sequences are background and not binding sites
Outline: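 Reported values are rank-based E-scores, taken as the mean of two universal arrays and parsed with a custom script. Each 8-mer score falls between -0.5 and 0.5. The arrays, ME and HK, were double-stranded 60-mers with a constant 25-mer primer region and a variable 35-mer region covering all 8-mers. They were probed, by an earlier protocol, with full-length P. aeruginosa MvaT carrying an N-terminal glutathione S-transferase fusion.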

Sequence | PBM 8-mer E-score
CGTATGTC | -0.225
ACTATCTC | 0.146
ACAGCAGA | -0.0795
CCAAAGGG | -0.244
CCTTGCGC | -0.129
CCTACACG | -0.123
GGACATCC | -0.211
CTATGCTA | -0.0938
ATATCGAT | 0.273
AAAGCTTC | -0.00541
GCTTCCCA | -0.148
CTATCAAC | 0.028
TTAATGAA | 0.393
GAGTCTAC | -0.0808
CAGGGGGA | -0.274
ATGTTGAC | 0.0371
CGGGTTAG | -0.226
AATTGAGC | 0.0577
CCAACTCC | -0.162
CCCACGAC | -0.179
TCGGGGAA | -0.167
GAGTGAGC | -0.114

Sequence | PBM 8-mer E-score
GGGAACAA | 0.0324
CGAGGGAA | -0.146
CTATTGGC | 0.0175
AGTCCGCG | -0.225
AAGGTCAG | -0.000821
CGCATAGC | -0.213
AAGCACTC | -0.14
GCGGAGCA | -0.101
AATTTCAC | 0.201
ACTCGTCT | -0.0571
ACATCTTA | 0.196
ACGAAGAT | 0.129
ACACTGTC | -0.031
CCAACAAG | -0.0849
AGTGGTCC | -0.327
CCTGGTAC | -0.223
GTAATGTA | 0.327
CTATTTTA | 0.261
ATCGTTAA | 0.247
GTTACACA | 0.0952
AGGGTTCA | -0.0718
CGTTACAG | 0.0767

Sequence | PBM 8-mer E-score
CTCTATTA | 0.267
CAGAGGGG | -0.244
ACTGTACT | 0.0725
ATAATAGG | 0.291
ATCATGTC | 0.0438
CGTTGGCC | -0.25
ACCCTGTA | -0.127
AAGGCTAG | -0.107
ACTAAGCG | 0.0156
ATCGCAGA | -0.185
ATCGTTTG | -0.00462
AATGATAG | 0.17
GCCAAAGC | -0.302
GACTACAC | -0.0579
GTGAGTGA | 0.00485
ACCCTAAC | -0.0407
ATCTCAGC | -0.162
AAAGCCAT | -0.111
CGCATTCC | -0.0892
AAATGGTC | -0.0709
TACCGACA | 0.0693
TACGGAAA | 0.0573

Sequence | PBM 8-mer E-score
CGTGCCCA | -0.0852
CACGGCAA | 0.0842
CACAGGGC | -0.199
AACATCAG | 0.0669
GGGTCTAC | -0.203
GGATAGCA | -0.13
CTTCCTAC | -0.199
CTGTTAGA | 0.00455
GGTCAGGA | -0.122
GAACCAGC | -0.102
ATAGTGTG | 0.179
GCACCTGC | -0.282
CTAACTTA | 0.379
ACCTAAAT | 0.136
CACGGATC | -0.196
CGATCATA | 0.167
GAGGAAAA | -0.134
AACGGTCT | -0.0665
AAACACTG | 0.132
CAGGTCAA | -0.00751
